The values below come from the RNAGym collection of RNA variant scans (doi:10.1073/pnas.2313332121).

To fix the notation:
B1: TPR 5TU (parent)
chain: GGAUCUUCUCGAUCUAACAAAAAAGACAAAUCUGCCACAAAGCUUGAGAGCAUCUUCGGAUGCAGAGGCGGCAGCCUUCGGUGGCGCGAUAGCGCCAACGUUCUCAACUAUGACACGCAAAACGCGUGCUCCGUUGAAUGGAGUUUAUCAUG

This sample is rich in variants without activity. Where only a bound is given, the exact number is not on record here.

The variants in the series derive from B1. As to the kind of experiment: polymerase ribozyme fitness, log enrichment relative to wild type (log ratio); higher = more active; in vitro selection for triplet polymerase activity. The essentials:
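For each subunit of a heterodimeric triplet polymerase ribozyme, a mutant library was built by PCR and transcribed, then taken through a single in vitro selection round in triplicate. Selection involved annealing to a biotinylated primer, the partner subunit and triplets, incubation frozen at −7 °C, gel excision of extended constructs, capture on streptavidin beads and RT-PCR. Genotypes were retained after Illumina sequencing of inputs and outputs only with ≥10 input reads and ≥1 read in each output. Fitness is defined as the logarithm of a genotype's enrichment relative to wild-type enrichment, using inverse-variance-weighted averages across replicates, with the logarithm taken to base 2.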
As to A19U A21C A39G G67C C87G U135G G140U, the “polymerase ribozyme fitness (log ratio)” value was no more than -4.2.

Turning to C18U C35U A39C G58A A137U, the “polymerase ribozyme fitness (log ratio)” value was no more than -4.2. In the case of A19G U44G C75U A89U C93U U102A C129U G140A it was no more than -4.2; in that of A19C A26G C43U C75G U135C, no more than -4.2; in that of C18U A39C U61A C87A A121U, no more than -4.2. As for A19C G94C U102G, the figure is no more than -4.2; as for A19G U33C C43U G48C G58A U78G C79U U134G, no more than -4.2; as for A19C A29U U53G C85G C114G, no more than -4.2. In the case of C18U A30C C76G C93U it was no more than -4.2; in that of A19C U45C C87G A110G C116A, no more than -4.2. A19U G58U G86U C95U A122G G140U G141U: the “polymerase ribozyme fitness (log ratio)” value is no more than -4.2. Turning to A19U A23G U45A C54U C72G, the “polymerase ribozyme fitness (log ratio)” value is no more than -4.2. In the case of A19G A23U A30C G48U U56C A60U C87U it was no more than -4.2; in that of A19U A26U U55A C75U G124A G141U, no more than -4.2. Regarding A19U A30U U55G G59A G86U A150U, the “polymerase ribozyme fitness (log ratio)” value is no more than -4.2. In the case of A19C G68A C79A C85G A91U G94C A97U G117A G136U A142U it was no more than -4.2.

As to A19U C75A G84A, the “polymerase ribozyme fitness (log ratio)” value was no more than -4.2.

As for A19G C27U, the “polymerase ribozyme fitness (log ratio)” value is -1.17. As for C18U A49C U55A G141A, the figure is no more than -4.2; as for A19G U33G, no more than -4.2. A19G G25U C32G U33A A40C A49G U55A C85U A106C: the “polymerase ribozyme fitness (log ratio)” value is no more than -4.2. As for A19G G94U C96U C116A C125U G133U, the figure is no more than -4.2. In the case of A19G A89C U134G it was -3.68; in that of A19C U44A C79A A97U C149U, no more than -4.2.

As to A19G G25C G50C A52G G83U G117U G143A, the “polymerase ribozyme fitness (log ratio)” value is no more than -4.2. As for C18U G50U U61C A138U, the figure is no more than -4.2; as for A19C C57A A66G A73U G92A G100U G143U, no more than -4.2. For the variant A19U C35A C93G U102A U127C, the “polymerase ribozyme fitness (log ratio)” value was no more than -4.2. On to A19C A39U C43G C51G A52G C76A U139G, for which the “polymerase ribozyme fitness (log ratio)” value is no more than -4.2. As for A19C A47C C54A U56A C87A G100C G136A, the figure is no more than -4.2; as for A19C C32G G46C G65C G86A C93G, no more than -4.2; as for A19C C38U U56G U61A U146A, no more than -4.2.

In the case of C18U U44A G46U A64G U77A A110C G140C U148A, the “polymerase ribozyme fitness (log ratio)” value is no more than -4.2.

Consider A19U G34U G88C C93U, for which the “polymerase ribozyme fitness (log ratio)” value is no more than -4.2. Regarding A19U C54A C79G C85U G117U, the “polymerase ribozyme fitness (log ratio)” value is no more than -4.2. As for A19U C51U C54A C85G C132G, the figure is no more than -4.2; as for A19G A49C U53A U90C U134A U145G, no more than -4.2; as for A19U G71U G83C U146G, no more than -4.2. As for C18U C32U A37C C54A C69A G70U A97U A138C C149A, the “polymerase ribozyme fitness (log ratio)” value is no more than -4.2. In the case of C18U G84A it was -0.579.

For A19G G46U U53G G94A A137C A138U U144A, the “polymerase ribozyme fitness (log ratio)” value is no more than -4.2. As for A19G G70C C118G, the “polymerase ribozyme fitness (log ratio)” value was no more than -4.2. As for A19C U53A, the figure is -1.57; as for A19U A22C C93U U145A, -1.22; as for A19C C57A A66G A73U C87U U134G A137U A147C, no more than -4.2. As for A19G G84A C105A U127C G141C, the figure is no more than -4.2; as for C18U G50A C75A C87A C99U U145A, no more than -4.2; as for A19C U55A U61A C76U G94C C99G U135A G143U, no more than -4.2. In the case of A19G A23U C38U G42U G68A U82A it was no more than -4.2.

For the variant A19G U31G U53A C75G C95U G112U A122G, the “polymerase ribozyme fitness (log ratio)” value was no more than -4.2. In the case of A19G G50U A119G A137G U148C it was no more than -4.2; in that of C18U C57A A115C G143U U148A, no more than -4.2. As for A19U G58C C87U C95U C116G, the figure is -1.52; as for A19G C57A G65A, -2.01.

On to A19U C54U G68U G83A G100U C116A, for which the “polymerase ribozyme fitness (log ratio)” value is no more than -4.2. As for C18U U31A C76U A107G U144G, the “polymerase ribozyme fitness (log ratio)” value is no more than -4.2. As for C18U G68C G141A U144A U151G, the figure is no more than -4.2. Take A19U A39G C85U U134G: the “polymerase ribozyme fitness (log ratio)” value was no more than -4.2. As for C18U C72U C76G U135G, the figure is no more than -4.2; as for A19C G25C G74C C125A A142G, no more than -4.2; as for A19U A40C G86C G100C C125U, no more than -4.2. As for A19C A21U A47G G67U A142C, the figure is no more than -4.2; as for A19U A29U A30U C76A C79A A150C, no more than -4.2; as for A19U A23U U33A U61G C76U U144G, no more than -4.2. As for A19C A30U C51A A91U C129U A142C, the figure is no more than -4.2. In the case of A19U A26G A29U G48U U55C A73G A91U, the “polymerase ribozyme fitness (log ratio)” value was no more than -4.2.

Turning to A19U C43A U55A C85A C95G A110U U146C, the “polymerase ribozyme fitness (log ratio)” value was no more than -4.2. In the case of A19C A91U C95A, the “polymerase ribozyme fitness (log ratio)” value is no more than -4.2.

As to A19U G50U, the “polymerase ribozyme fitness (log ratio)” value was -0.0269.

For C18U A37C A47U A49G U61G C95A G136U, the “polymerase ribozyme fitness (log ratio)” value is no more than -4.2. As for A19U G58A G83A U139A A142U, the figure is no more than -4.2; as for A19U C75U U139G G140A U151G, no more than -4.2.

As for A19C A29U C54G C108U, the “polymerase ribozyme fitness (log ratio)” value was no more than -4.2. In the case of C18U C76A G83C G136A U148C, the “polymerase ribozyme fitness (log ratio)” value is no more than -4.2. As for A19C C79U A89U C108G A119U U135A G141U A147U A150G, the figure is no more than -4.2; as for A19G C27A C57A G92U A97G G133A U134G, no more than -4.2. In the case of A19G U53A A91G U102A it was no more than -4.2. On to A19U A28G G50A G68A G94U, for which the “polymerase ribozyme fitness (log ratio)” value is no more than -4.2. In the case of A19G A39G U56A C96U A120C A138G G141A it was no more than -4.2; in that of A19U C36U G81A C95G A121U G128A A137U U139A, no more than -4.2. As for A19G A24G C43A G59A, the figure is no more than -4.2; as for A19U C75A C93A U102C C103A, no more than -4.2; as for C18U G86A C96A U101G G112U, no more than -4.2.

Consider A19C A30G C85G, for which the “polymerase ribozyme fitness (log ratio)” value was no more than -4.2.
